Measurements as given in the RNAGym collection of RNA variant scans (doi:10.7554/elife.90254).
The source gives no read counts; variants with many changes may rest on few reads.

B1: LINE1-full (parent)
chain: UACGUAGGUGGUUUUCCCCUGAUAGUGCUAAGGGGGCCUGGAAGUUUGGACUGGGCAGAGCUCAACACAGCGUGGCAAAGUGGCUGUGGCUAGACUGCCUCUCUGGAUUCCUCGUCACUCAGCAGGGCAUCUCUGAGAGAAAUGCC

Variants of: B1
Assay: self-cleavage, relative activity (ratio to wild type); higher = more cleavage; in vitro, sequencing; the parent is a self-cleaving ribozyme

Variant	self-cleavage
U13G A94G A124U A142U	0
U13C A78U U100A	1.52
G55U A78G C113U	0.09
U26C U45A U108C	1.67
U9A C111A A140U	1.27
U1A U81A A94G U115C	0
U9A U20C A77G	0.97
A43G U45C U104C	1.31
U39C A43G U102C	1.62
U39A G48A U132C	1.58
G40A A64G A136G A142G	0.17
A65G A77U A107U	0.01
U26A A78U U108A U112C	1.63
U13A A42G A142G	1.06
A6G U112A A142G	1.41
A57U U73A C120U	0.11
U9A A31G U119A	0.6
U26A C71U A77G	0.57
U45G A69U C113U	0.07
U47C U52C A107G	0
U15C U20A U132G A141U	0.71

Variant	self-cleavage
C17U U20C U26A A69U A140G	0.08
U20G A31U A94U	0.12
A77U U119C A141G	2.4
A22G A78U A107C A142G	2.86
U15C A42U U46C	1.06
U85C A107G U143A	0.16
U15C U39A A64G A77G C145U	0.56
A31C U73G A141G	0
U73A A129G A140U	2.23
U23A U73C U96C U104A	0
U12G U46C A57U U73A A77C U102C	0
U62C A92U A121U A140G	0
A65G G89A U104A	0.05
C18U A67G A138G	0
A107G U115G U132C A138G	0
A24G C103U U115A	1.13
U85A U119C A142G U143A	0
U73A U85C G88A	0.04
U62C A92G A141G	0
A65U A121G U134C	0.15
G54C A94G U119A A124U A136G	1.28

Variant	self-cleavage
A22U C61U A77U U132C A142G	0.06
U9C U85A U100C U112C	0.92
U46C U132C A138G	1.15
U12C G32U A141G	1.21
A42G G53U G122A U130A	1.85
U12G A77G U134A	1.34
A24G U46C U52C A78G A129U A140U	1.7
A42G U85C A117G	0
A6G A59G U108C	0.68
U14C A78G A94G	0
U12G A43G U100A A141G	0.89
U14A U15C U47C A117U	0.91
U9C A31C A141G	0.26
U14C U102C U108C A141G	0
U15C U73A U100A U104C U109C	2.45
U45A A79U A121G	1.8
G10A A31C U47C	1.94
A31G U104A A121G U132C	0.98
U52C U85C A129G	0
U1C U45C C99A	0.69
A31G U46C U47A	1.29

Variant	self-cleavage
U46A U87C U134G	0.33
U1C A64C A117G	0.15
U73C A121G G126A A142G	1.45
G70A A117U A142G	0.17
U91C U112C A140G	0.83
A67G C90U U130C	0.02
U13C A78G C110A U119C	1.06
U13C U20C C56U U85C U100C	0.1
G48A A77U A121U	1.04
A24U A64G U87C	0
A69U U85C U91C	0
G83A A141G A142G	1.19
U26C U39A U100C	2.45
U20C A117U A141G	1.5
U9C U47A A57G U102C U132A	0.97
U87C A94G A129G	0.86
U46A G86A U112A U134C	0.03
G75A A77G U112A	1.01
A77U A129G A141G	2.63
A31U C99U U119C C120U	1.53
U1C U46C G48A U100C A117G U119G	0
